Results on 31 molecules are retold here after PMC9911399, “Two distinct binding modes provide the RNA-binding protein RbFox with extraordinary sequence specificity”.

T1: RBFOX1 RRM (Homo sapiens, UniProt Q9NWB1 109-208)
T1 sequence: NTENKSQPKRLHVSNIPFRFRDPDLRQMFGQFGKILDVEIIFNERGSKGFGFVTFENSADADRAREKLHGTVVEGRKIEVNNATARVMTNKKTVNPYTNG

B1: AACAGUU (DNA:RNA)
RNA: GGGAGACCGGAAUUCAGAUUGUCCAACAGUUUUAAAUCCCGUCGUAGCCACCA
DNA 1: CAATCTGAATTCCGGTCTCCC
DNA 2: TGGTGGCTACGACGGGATT
B2: CGGUCGA (DNA:RNA)
RNA: GGGAGACCGGAAUUCAGAUUGUCCCGGUCGAUUAAAUCCCGUCGUAGCCACCA
DNA 1: CAATCTGAATTCCGGTCTCCC
DNA 2: TGGTGGCTACGACGGGATT
B3: UUCUAUC (DNA:RNA)
RNA: B1 RNA with A25U, A26U, A28U, G29A, U31C
DNA 1: CAATCTGAATTCCGGTCTCCC
DNA 2: TGGTGGCTACGACGGGATT
B4: CUCUAGA (DNA:RNA)
RNA: B2 RNA with G26U, G27C, C29A
DNA 1: CAATCTGAATTCCGGTCTCCC
DNA 2: TGGTGGCTACGACGGGATT
B5: GUGUCAC (DNA:RNA)
RNA: B2 RNA with C25G, G26U, G30A, A31C
DNA 1: CAATCTGAATTCCGGTCTCCC
DNA 2: TGGTGGCTACGACGGGATT
B6: GUCUACC (DNA:RNA)
RNA: B1 RNA with A25G, A26U, A28U, G29A, U30C, U31C
DNA 1: CAATCTGAATTCCGGTCTCCC
DNA 2: TGGTGGCTACGACGGGATT
B7: AAAAGCC (DNA:RNA)
RNA: B1 RNA with C27A, U30C, U31C
DNA 1: CAATCTGAATTCCGGTCTCCC
DNA 2: TGGTGGCTACGACGGGATT
B8: CCAAGUU (DNA:RNA)
RNA: B1 RNA with A25C, A26C, C27A
DNA 1: CAATCTGAATTCCGGTCTCCC
DNA 2: TGGTGGCTACGACGGGATT
B9: AGGGGAU (DNA:RNA)
RNA: B1 RNA with A26G, C27G, A28G, U30A
DNA 1: CAATCTGAATTCCGGTCTCCC
DNA 2: TGGTGGCTACGACGGGATT
B10: AGCCGGU (DNA:RNA)
RNA: B1 RNA with A26G, A28C, U30G
DNA 1: CAATCTGAATTCCGGTCTCCC
DNA 2: TGGTGGCTACGACGGGATT
B11: AUGCCGG (DNA:RNA)
RNA: B2 RNA with C25A, G26U, U28C, A31G
DNA 1: CAATCTGAATTCCGGTCTCCC
DNA 2: TGGTGGCTACGACGGGATT
B12: UUUCGAU (DNA:RNA)
RNA: B1 RNA with A25U, A26U, C27U, A28C, U30A
DNA 1: CAATCTGAATTCCGGTCTCCC
DNA 2: TGGTGGCTACGACGGGATT
B13: UGUCCAC (DNA:RNA)
RNA: B2 RNA with C25U, G27U, U28C, G30A, A31C
DNA 1: CAATCTGAATTCCGGTCTCCC
DNA 2: TGGTGGCTACGACGGGATT
B14: CUCCACA (DNA:RNA)
RNA: B2 RNA with G26U, G27C, U28C, C29A, G30C
DNA 1: CAATCTGAATTCCGGTCTCCC
DNA 2: TGGTGGCTACGACGGGATT
B15: UAUUCGA (DNA:RNA)
RNA: B2 RNA with C25U, G26A, G27U
DNA 1: CAATCTGAATTCCGGTCTCCC
DNA 2: TGGTGGCTACGACGGGATT
B16: GUGUUGC (DNA:RNA)
RNA: B2 RNA with C25G, G26U, C29U, A31C
DNA 1: CAATCTGAATTCCGGTCTCCC
DNA 2: TGGTGGCTACGACGGGATT
B17: AACUGUC (DNA:RNA)
RNA: B1 RNA with A28U, U31C
DNA 1: CAATCTGAATTCCGGTCTCCC
DNA 2: TGGTGGCTACGACGGGATT
B18: AUAAAGC (DNA:RNA)
RNA: B1 RNA with A26U, C27A, G29A, U30G, U31C
DNA 1: CAATCTGAATTCCGGTCTCCC
DNA 2: TGGTGGCTACGACGGGATT
B19: UCUUUGG (DNA:RNA)
RNA: B2 RNA with C25U, G26C, G27U, C29U, A31G
DNA 1: CAATCTGAATTCCGGTCTCCC
DNA 2: TGGTGGCTACGACGGGATT
B20: UCGCGGA (DNA:RNA)
RNA: B2 RNA with C25U, G26C, U28C, C29G
DNA 1: CAATCTGAATTCCGGTCTCCC
DNA 2: TGGTGGCTACGACGGGATT
B21: CGCGUAA (DNA:RNA)
RNA: B2 RNA with G27C, U28G, C29U, G30A
DNA 1: CAATCTGAATTCCGGTCTCCC
DNA 2: TGGTGGCTACGACGGGATT
B22: CAAACUG (DNA:RNA)
RNA: B1 RNA with A25C, C27A, G29C, U31G
DNA 1: CAATCTGAATTCCGGTCTCCC
DNA 2: TGGTGGCTACGACGGGATT
B23: CGAAAUU (DNA:RNA)
RNA: B1 RNA with A25C, A26G, C27A, G29A
DNA 1: CAATCTGAATTCCGGTCTCCC
DNA 2: TGGTGGCTACGACGGGATT
B24: CUCGGGG (DNA:RNA)
RNA: B1 RNA with A25C, A26U, A28G, U30G, U31G
DNA 1: CAATCTGAATTCCGGTCTCCC
DNA 2: TGGTGGCTACGACGGGATT
B25: GUCAUAC (DNA:RNA)
RNA: B1 RNA with A25G, A26U, G29U, U30A, U31C
DNA 1: CAATCTGAATTCCGGTCTCCC
DNA 2: TGGTGGCTACGACGGGATT
B26: UUUGACA (DNA:RNA)
RNA: B2 RNA with C25U, G26U, G27U, U28G, C29A, G30C
DNA 1: CAATCTGAATTCCGGTCTCCC
DNA 2: TGGTGGCTACGACGGGATT
B27: CCCUCGA (DNA:RNA)
RNA: B2 RNA with G26C, G27C
DNA 1: CAATCTGAATTCCGGTCTCCC
DNA 2: TGGTGGCTACGACGGGATT
B28: GAUCUAG (DNA:RNA)
RNA: B1 RNA with A25G, C27U, A28C, G29U, U30A, U31G
DNA 1: CAATCTGAATTCCGGTCTCCC
DNA 2: TGGTGGCTACGACGGGATT
B29: UAAUAUU (DNA:RNA)
RNA: B1 RNA with A25U, C27A, A28U, G29A
DNA 1: CAATCTGAATTCCGGTCTCCC
DNA 2: TGGTGGCTACGACGGGATT
B30: UUGUUGU (DNA:RNA)
RNA: B2 RNA with C25U, G26U, C29U, A31U
DNA 1: CAATCTGAATTCCGGTCTCCC
DNA 2: TGGTGGCTACGACGGGATT
B31: CUACUUU (DNA:RNA)
RNA: B1 RNA with A25C, A26U, C27A, A28C, G29U
DNA 1: CAATCTGAATTCCGGTCTCCC
DNA 2: TGGTGGCTACGACGGGATT

Where a chain is given by its changes, count along the chain named. The list shows a part of the results.

For the assay, the target named is T1, RBFOX1 RRM. Nature of the assay: EMSA; HiTS-Eq, 1 nM pool, 10 min; buffer printed only for the single-RNA assays: 10 mM Tris pH 7.5, 150 mM NaCl, 3.4 mM EDTA, 0.001% NP-40, 30 C. To be noted: tags: His6 N-terminal (pET28a); label: 5' 32P. The method in brief:
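Purified RbFox RRM, wild type or mutant, was incubated for 10 min in 50 µL with 1 nM of a 5′-radiolabelled RNA pool carrying 7 randomized nucleotides, whose flanks were annealed to DNA oligonucleotides, over a series of increasing protein concentrations. Unbound RNA was resolved on 8% native PAGE, cut out, reverse-transcribed, barcoded by PCR and sequenced on an Illumina HiSeq 2500. Relative association constants were derived from changes in read counts for each RNA species versus the control reaction and normalised to the cognate motif.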
(In EMSA bound probe runs differently from free probe, usually more slowly.)
In the case of B1, the binding signal was 0.0024 KA relative to UGCAUGU. Regarding B2, the binding signal is 0.00831 KA relative to UGCAUGU.

As to B3, the binding signal was 0.00501 KA relative to UGCAUGU. Regarding B4, the binding signal is 0.00742 KA relative to UGCAUGU.

B5: the binding signal was 0.0104 KA relative to UGCAUGU. Take B6: the binding signal was 0.0113 KA relative to UGCAUGU. With B7, the binding signal is 0.00303 KA relative to UGCAUGU.

In the case of B8, the binding signal was 0.00543 KA relative to UGCAUGU.

On to B9, for which the binding signal was 0.0169 KA relative to UGCAUGU.

For B10, the binding signal was 0.00205 KA relative to UGCAUGU. The same measure for B11: 0.0153 KA relative to UGCAUGU; for B12: 0.0217 KA relative to UGCAUGU. The same measure for B13: 0.00727 KA relative to UGCAUGU. For B14, the binding signal was 0.00143 KA relative to UGCAUGU. Take B15: the binding signal was 0.0155 KA relative to UGCAUGU.

B16: the binding signal is 0.0138 KA relative to UGCAUGU. As to B17, the binding signal is 0.00948 KA relative to UGCAUGU.

Regarding B18, the binding signal was 0.00101 KA relative to UGCAUGU. With B19, the binding signal was 0.0222 KA relative to UGCAUGU.

As to B20, the binding signal is 0.00548 KA relative to UGCAUGU. As for B21, the binding signal was 0.0027 KA relative to UGCAUGU. Turning to B22, the binding signal was 0.00407 KA relative to UGCAUGU. The figure for B23 is 0.00438 KA relative to UGCAUGU. The figure for B24 is 0.00169 KA relative to UGCAUGU; for B25 it is 0.00477 KA relative to UGCAUGU; for B26 it is 0.0052 KA relative to UGCAUGU. Consider B27, for which the binding signal is 0.00352 KA relative to UGCAUGU.

In the case of B28, the binding signal is 0.00899 KA relative to UGCAUGU.

Consider B29, for which the binding signal is 0.004 KA relative to UGCAUGU.

Turning to B30, the binding signal was 0.0241 KA relative to UGCAUGU. Turning to B31, the binding signal was 0.00393 KA relative to UGCAUGU.
